# Source: a collection of fitness landscapes (doi:10.1126/science.1257360)
# This is one part of the list.
# B1: PhoQ; a variant is named by its letters at X, in order, P23837 (parent)
# chain: MKKLLRLFFPLSLRVRFLLATAAVVLVLSLAYGMVALIGYSVSFDKTTFRLLRGESNLFYTLAKWENNKLHVELPENIDKQSPTMTLIYDENGQLLWAQRDVPWLMKMIQPDWLKSNGFHEIEADVNDTSLLLSGDHSIQQQLQEVREDDDDAEMTHSVAVNVYPATSRMPKLTIVVVDTIPVELKSSYMVWSWFIYVLSANLLLVIPLLWVAAWWSLRPIEALAKEVRELEEHNRELLNPATTRELTSLVRNLNRLLKSERERYDKYRTTLTDLTHSLKTPLXXLQXXLRSLRSEKMSVSDAEPVMLEQISRISQQIGYYLHRASMRGGTLLSRELHPVAPLLDNLTSALNKVYQRKGVNISLDISPEISFVGEQNDFVEVMGNVLDNACKYCLEFVEISARQTDEHLYIVVEDDGPGIPLSKREVIFDRGQRVDTLRPGQGVGLAVAREITEQYEGKIVAGESMLGGARMEVIFGRQHSAPKDE
# Variants of: B1
# Test: enrichment ratio after two sorts for PhoP signalling (ratio (wild type AVST 3.29)); higher = more functional
# Details: with PhoP (E. coli)
row,Variant,enrichment ratio
1,RKSD,≤ 0.25
2,GIYP,≤ 0.25
3,FGWK,≤ 0.25
4,VLHW,≤ 0.25
5,SIGP,≤ 0.25
6,WKII,≤ 0.25
7,QWTI,≤ 0.25
8,ECFL,≤ 0.25
9,HYAD,≤ 0.25
10,YPPM,≤ 0.25
11,PAQC,≤ 0.25
12,MAEP,≤ 0.25
13,CLYL,≤ 0.25
14,YFHL,≤ 0.25
15,GDVY,≤ 0.25
16,EKPM,≤ 0.25
17,EPHD,≤ 0.25
18,MVCW,≤ 0.25
19,YYPD,≤ 0.25
20,HFTG,≤ 0.25
21,IYMM,0.427
22,KMEH,≤ 0.25
23,AHIM,≤ 0.25
24,LVPH,≤ 0.25
25,LAAT,≤ 0.25

row,Variant,enrichment ratio
1,MASL,5.29
2,NEGF,≤ 0.25
3,KNPW,≤ 0.25
4,YFVI,≤ 0.25
5,WHLT,≤ 0.25
6,GTGR,≤ 0.25
7,TMSA,15.1
8,AWVT,≤ 0.25
9,YKYR,≤ 0.25
10,NSGD,≤ 0.25
11,PLYI,≤ 0.25
12,WNCY,≤ 0.25
13,ICPG,≤ 0.25
14,DMVP,≤ 0.25
15,TGCE,24.6
16,WHKD,≤ 0.25
17,LEMC,2.61
18,KGFG,≤ 0.25
19,GETW,≤ 0.25
20,NTWN,≤ 0.25
21,TEAI,20.4
22,MQCC,11.8
23,HALS,≤ 0.25
24,LVKI,≤ 0.25
25,WPIE,≤ 0.25

row,Variant,enrichment ratio
1,KASM,≤ 0.25
2,GYFC,≤ 0.25
3,SGGN,≤ 0.25
4,IIYN,≤ 0.25
5,DDRY,≤ 0.25
6,SIFF,≤ 0.25
7,VHQD,≤ 0.25
8,NAPF,≤ 0.25
9,WCLE,≤ 0.25
10,KIHI,≤ 0.25
11,ENSW,≤ 0.25
12,FGFS,≤ 0.25
13,LFMC,≤ 0.25
14,NEQI,≤ 0.25
15,MMHA,≤ 0.25
16,IDHY,≤ 0.25
17,RVTW,≤ 0.25
18,GSFN,≤ 0.25
19,EPTR,≤ 0.25
20,DLWQ,≤ 0.25
21,YRFI,≤ 0.25
22,LSGY,≤ 0.25
23,VSCR,≤ 0.25
24,FSAE,1.19
25,KVDS,≤ 0.25

row,Variant,enrichment ratio
1,HDLL,≤ 0.25
2,TSPF,≤ 0.25
3,SYHG,≤ 0.25
4,VHTR,≤ 0.25
5,ELWW,≤ 0.25
6,LEDN,≤ 0.25
7,LFYP,≤ 0.25
8,ISPG,≤ 0.25
9,KIVS,≤ 0.25
10,HWYD,≤ 0.25
11,FLMP,≤ 0.25
12,PQMQ,≤ 0.25
13,YMII,≤ 0.25
14,RYIQ,≤ 0.25
15,SKDS,≤ 0.25
16,IIWV,≤ 0.25
17,PMYH,≤ 0.25
18,IYPW,≤ 0.25
19,ETPW,≤ 0.25
20,GIIQ,6.31
21,WVNH,≤ 0.25
22,DFVF,≤ 0.25
23,PHDF,≤ 0.25
24,FKLF,≤ 0.25
25,TQDW,≤ 0.25

row,Variant,enrichment ratio
1,EHEC,≤ 0.25
2,NSQT,≤ 0.25
3,FPTN,≤ 0.25
4,HVPM,≤ 0.25
5,DGRL,≤ 0.25
6,RRRF,≤ 0.25
7,NFHH,≤ 0.25
8,TFPH,≤ 0.25
9,ESGW,≤ 0.25
10,QDMK,≤ 0.25
11,VLRC,≤ 0.25
12,DAIH,≤ 0.25
13,MQEC,≤ 0.25
14,FWCA,≤ 0.25
15,NHPR,≤ 0.25
16,VPNR,≤ 0.25
17,LIYW,≤ 0.25
18,HDQT,≤ 0.25
19,EMTE,≤ 0.25
20,RAMF,≤ 0.25
21,KYVH,≤ 0.25
22,DGPG,≤ 0.25
23,HGHN,≤ 0.25
24,LCHI,≤ 0.25
25,QGSM,9.07

row,Variant,enrichment ratio
1,DDAI,≤ 0.25
2,SFPT,≤ 0.25
3,WNYW,≤ 0.25
4,NKCL,≤ 0.25
5,RSQW,0.274
6,LTYQ,4.75
7,VKLK,≤ 0.25
8,RTDA,≤ 0.25
9,WYNN,≤ 0.25
10,YADD,≤ 0.25
11,NYHH,≤ 0.25
12,RYHF,≤ 0.25
13,YKWF,≤ 0.25
14,ADSK,≤ 0.25
15,INKM,≤ 0.25
16,ICWW,≤ 0.25
17,LHTI,≤ 0.25
18,DDTG,≤ 0.25
19,YFHI,≤ 0.25
20,QVQF,≤ 0.25
21,HPFK,≤ 0.25
22,KNVG,≤ 0.25
23,MSWD,≤ 0.25
24,GPPC,≤ 0.25
25,MRRG,≤ 0.25

row,Variant,enrichment ratio
1,DAWD,≤ 0.25
2,YCQM,≤ 0.25
3,FWCF,≤ 0.25
4,CLFP,≤ 0.25
5,IWKL,≤ 0.25
6,PPPE,≤ 0.25
7,LLLF,≤ 0.25
8,LMVS,≤ 0.25
9,ITSF,≤ 0.25
10,SMSG,4.92
11,SCFI,≤ 0.25
12,FKRR,≤ 0.25
13,GSFV,≤ 0.25
14,KIDW,≤ 0.25
15,RFHG,≤ 0.25
16,DHAH,≤ 0.25
17,ARKP,≤ 0.25
18,RQFK,≤ 0.25
19,MMPE,≤ 0.25
20,KGYN,≤ 0.25
21,RAVD,≤ 0.25
22,VFGY,≤ 0.25
23,YRVN,≤ 0.25
24,DTMN,≤ 0.25
25,KRCV,≤ 0.25

row,Variant,enrichment ratio
1,INKS,≤ 0.25
2,EEDH,≤ 0.25
3,NWAN,≤ 0.25
4,AEMF,≤ 0.25
5,DKHI,≤ 0.25
6,SKGW,≤ 0.25
7,NSYN,0.459
8,LVAR,≤ 0.25
9,ICVM,≤ 0.25
10,DQQY,≤ 0.25
11,CRLV,≤ 0.25
12,QMAN,≤ 0.25
13,THRY,≤ 0.25
14,SRHY,≤ 0.25
15,GGVV,≤ 0.25
16,LPWH,≤ 0.25
17,NCMR,≤ 0.25
18,LGAV,≤ 0.25
19,MHFE,≤ 0.25
20,MDKE,≤ 0.25
